# Reference: publication PMC4336329 (PLoS ONE, 2015)
# About 14,000 (4.5%) of roughly 310,000 compounds showed an effect of 50% or more. The effect is printed as a negative number. The list shows a part of the results.
# Molecular target: human ether-à-go-go-related gene (hERG) potassium channel (human, UniProt Q12809)
# Assay: primary screen, population patch clamp on CHO cells stably expressing hERG
# 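Note: peak tail current of the secondary pulse compared with the same well before compound.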
# Sequence of human ether-à-go-go-related gene (hERG) potassium channel (Q12809 whole entry, looked up): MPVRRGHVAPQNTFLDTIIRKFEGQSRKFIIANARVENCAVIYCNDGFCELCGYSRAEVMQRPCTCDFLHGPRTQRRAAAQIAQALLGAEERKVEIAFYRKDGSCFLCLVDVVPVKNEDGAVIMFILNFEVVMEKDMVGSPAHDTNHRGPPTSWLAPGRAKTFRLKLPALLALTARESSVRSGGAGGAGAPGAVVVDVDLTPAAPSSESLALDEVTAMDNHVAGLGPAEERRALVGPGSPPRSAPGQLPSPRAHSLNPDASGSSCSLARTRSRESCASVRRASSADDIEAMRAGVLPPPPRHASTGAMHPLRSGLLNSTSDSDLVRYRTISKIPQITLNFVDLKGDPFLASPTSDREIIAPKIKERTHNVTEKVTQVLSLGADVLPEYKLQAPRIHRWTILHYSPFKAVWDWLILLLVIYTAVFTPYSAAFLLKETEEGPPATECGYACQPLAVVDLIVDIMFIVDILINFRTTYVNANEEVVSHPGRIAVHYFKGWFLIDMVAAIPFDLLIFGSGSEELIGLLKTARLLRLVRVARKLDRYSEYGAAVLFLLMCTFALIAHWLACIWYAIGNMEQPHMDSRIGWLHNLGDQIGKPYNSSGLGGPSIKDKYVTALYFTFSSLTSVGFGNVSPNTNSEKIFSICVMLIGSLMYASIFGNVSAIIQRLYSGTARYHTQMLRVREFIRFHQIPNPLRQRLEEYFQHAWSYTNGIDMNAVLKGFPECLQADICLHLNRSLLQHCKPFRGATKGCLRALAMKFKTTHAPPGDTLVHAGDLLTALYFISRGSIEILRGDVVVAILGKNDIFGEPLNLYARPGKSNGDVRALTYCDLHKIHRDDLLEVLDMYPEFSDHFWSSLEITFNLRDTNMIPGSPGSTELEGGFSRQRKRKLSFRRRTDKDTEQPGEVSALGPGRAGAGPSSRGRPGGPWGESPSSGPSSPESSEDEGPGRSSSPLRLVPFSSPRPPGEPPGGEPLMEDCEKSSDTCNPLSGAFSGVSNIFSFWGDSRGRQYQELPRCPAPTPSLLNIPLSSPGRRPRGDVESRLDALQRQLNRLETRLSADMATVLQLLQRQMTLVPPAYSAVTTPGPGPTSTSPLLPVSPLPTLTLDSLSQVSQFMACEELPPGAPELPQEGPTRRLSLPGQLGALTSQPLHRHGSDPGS
row,SMILES,"hERG current change (%, negative = inhibition) at 10uM"
1,O=C(O)c1cncc(Br)c1,27.3%
2,CCN(CC)S(=O)(=O)c1ccc(N2CCOCC2)c(NS(=O)(=O)c2ccc(OC)cc2)c1,7.66%
3,Cc1ccc(NC(=O)C2CCN(S(=O)(=O)c3ccc4c(c3)NC(=O)C(C)S4)CC2)cc1C (centres unmarked),11.8%
4,CCCCc1nnc(NC(=O)COC)s1,30.8%
5,Cc1cc(C(=O)CN2C(=O)C(=O)N(Cc3ccco3)C2=O)c(C)n1CCc1ccc(F)cc1,-21%
6,CCn1nc(C)cc1C(=O)Sc1cccc(Br)c1,8.89%
7,CCOc1ncccc1C(=O)NNC(=O)c1csc(N2CCOCC2)n1,7.98%
8,COCCNC(=O)c1snc2ccc(Cl)cc12,13.9%
9,O=C(NNC(=O)c1ccc([N+](=O)[O-])cc1C(=O)O)c1ccncc1,20.4%
10,CN(C(=O)COC(=O)Cc1c(F)cccc1Cl)c1c(N)n(Cc2ccccc2)c(=O)[nH]c1=O,8.76%
11,Cc1cnc(C(=O)OCC(=O)Nc2cccc(Cl)c2)cn1,19.8%
12,CCN(CC)C(=O)Oc1ccc2c(c1)O/C(=C\c1ccco1)C2=O,-29.2%
13,Cc1cc(C)n(CC(O)Cn2c3ccccc3c3ccccc32)n1.[Cl-] (centres unmarked),-2.28%
14,Cc1cc(C)c(Cn2c(=O)n(CCCC(=O)NCc3ccco3)c(=O)c3ccccc32)c(C)c1,13.2%
15,CC(NC(=O)c1ccc(S(=O)(=O)C(F)F)cc1)c1ccccc1 (centres unmarked),2.57%
16,Cc1ccc(CNCC(O)(c2ccccc2)c2ccccc2)cc1,-33%
17,Cc1ccccc1N1CCN(S(=O)(=O)C[C@]23CCC(CC2NC(=O)[C@@H](N)CCS(C)(=O)=O)C3(C)C)CC1.Cl (some centres unmarked),5.91%
18,COc1cccc(SCc2noc(C(=O)NCC3CCCO3)c2C(=O)O)c1 (centres unmarked),11.9%
19,Cc1ccc(C(C(=O)NC2CCCC2)N(C(=O)c2csnn2)c2cccc(F)c2)o1 (centres unmarked),18.5%
20,COCCCNC(=O)CCCC(=O)NCCCOC,17.3%
21,CC1CCc2c(sc3ncnc(SC(C)C(=O)NCC4CCCO4)c23)C1 (centres unmarked),-13.9%
22,Cc1cc(C)cc(OCC(=O)NNC(=O)CCN2C(=O)c3ccccc3C2=O)c1,-14.8%

row,SMILES,"hERG current change (%, negative = inhibition) at 10uM"
1,Cc1cccc(CCNC(=O)CCc2nnc(CCc3ccccc3)o2)n1,13.4%
2,Clc1ccc(OCc2cc(-c3ccccc3)no2)c(Cl)c1,11.2%
3,CN(C)S(=O)(=O)c1cccc(NC(=O)COC(=O)COc2ccc(Br)cc2)c1,-19.5%
4,CC(C)(C)NC(=O)C(c1ccc(O)cc1)N(C(=O)Cn1nnc(-c2ccc(F)cc2)n1)c1ccccc1F (centres unmarked),-1.66%
5,CN(C)c1ccc(NC(=O)COC(=O)Cn2nnc3ccccc32)cc1,-13.9%
6,CC(=O)Nc1ccc(S(=O)(=O)N2CCc3c(Cl)cccc3C2)cc1,7.78%
7,O=C(COC(=O)CNS(=O)(=O)c1c(Cl)cccc1Cl)Nc1ccccc1Sc1ccccc1,9.31%
8,Cc1noc(C)c1COC(=O)Cc1ccc(Cl)c(Cl)c1,-3.02%
9,CCOC(=O)c1[nH]c(C)c(C(=O)Nc2cc(Cl)ccc2C)c1C,10.4%
10,COc1cccc(C(=O)NNC(=O)c2ccccc2)c1,8.52%
11,CCC(NC(=O)OC(C)(C)C)C(=O)Oc1cc(C)cc2oc(=O)c3c(c12)CCC3 (centres unmarked),0.344%
12,COc1ccc(Cl)cc1S(=O)(=O)Nc1cccc(C(=O)O)c1,-4.31%
13,Cc1nn(CC(=O)N2CCN(S(=O)(=O)c3ccccc3)CC2)c(C)c1[N+](=O)[O-],-10%
14,Cl.N=c1c2c(n(Cc3ccc(Cl)cc3)c3c1CCC3)CCC2,-2.06%
15,Cc1ccc2nnnc(-c3ccccc3)c2c1,6.84%
16,Cn1c(CNC(=O)c2ccco2)nnc1SCC(=O)N1CCN(c2ccccc2)CC1,7.26%
17,Cc1cc(C)n(S(=O)(=O)c2cccc(Cl)c2Cl)n1,-2.07%
18,Cc1cc(C(=O)CSc2nnc(NCc3ccccc3)s2)c(C)n1C,-9.15%
19,COCCNC(=O)Cn1cc(/C=C2\C(=O)NC(=O)N(c3ccccc3F)C2=O)c2ccccc21,17%
20,COc1ccc(CCNC(=O)C(=O)Nc2ccc3c(c2)OCCO3)cc1OC,14.8%
21,CCN1CCN(C(=O)/C(=C/c2cccs2)NC(=O)c2ccc(C)c(C)c2)CC1,-75.6%
22,CC(C)c1c(O)nc(SCc2ccc(F)cc2)[nH]c1=O,20.4%

row,SMILES,"hERG current change (%, negative = inhibition) at 10uM"
1,CCN(Cc1ccccc1)S(=O)(=O)c1cc(C(=O)c2c(N)n(C)c(=O)n(C)c2=O)ccc1OC,-15.2%
2,COc1cccc(CNC(=O)CCCc2c[nH]c3ccccc23)c1,-12.3%
3,CCc1nnc(NC(=O)c2ccc(Br)c(S(=O)(=O)N3CCOCC3)c2)s1,21.1%
4,O=C(O)CCC(=O)N1CCc2cc(S(=O)(=O)N3CCC(Cc4ccccc4)CC3)ccc21,6.5%
5,COc1ccc(Cn2c(CCC(=O)Nc3ccc(CC#N)cc3)nc3cccnc32)cc1,-10.6%
6,Cc1ccc(NC2=C(Cl)C(=O)OC2OC(=O)c2ccc(C)cc2)cc1 (centres unmarked),-51.7%
7,CCCCC(=O)Nc1ccc(NC(=O)c2ccccc2[N+](=O)[O-])cc1OC,-14%
8,N/C(CC(=O)Nc1ccc(F)c(Cl)c1)=N\OC(=O)c1cccs1,16.4%
9,Cc1cccc(NCC(=O)N/N=C\c2c[nH]c3ccccc23)c1,-9.16%
10,O=C(NC(=O)c1ccc(F)cc1F)Nc1ccc(Cl)cc1,3.56%
11,CCc1c(C2(O)CCCCC2)[nH]c2ccc(C(=O)OC)cc12,15.3%
12,COc1ccc(CCNC(=O)C2CCCN(S(=O)(=O)c3ccc(F)cc3)C2)cc1OC (centres unmarked),-5.02%
13,COC(=O)C(C)NC(=S)N1CC2C[C@@H](C1)Cn1c2cccc1=O (some centres unmarked),16.9%
14,COCCCNC(=O)CN(c1ccc(OC)cc1)S(=O)(=O)c1ccc(NC(C)=O)cc1,12.9%
15,Cn1c2c(c(=O)c3ccccc31)CCCC2,-4.88%
16,CNC(=O)c1sc(-c2cccnc2)nc1C,-34.7%
17,O=C(Nc1ccc2c(c1)C(=O)NC2=O)c1ccc(Cl)s1,10.5%
18,O=C1CCC(C(=O)Nc2ccc(Cl)cc2)N1 (centres unmarked),28%
19,CC(=O)N/C(=C\c1ccccc1)C(=O)OCC(=O)NC(=O)c1ccccc1,-6.77%
20,CCc1cccc(C)c1NC(=O)C1CC(=O)N(C2CCCC2)C1 (centres unmarked),3.52%
21,O=S1(=O)CC(O)C(NCCO)C1 (centres unmarked),5.25%
22,CCOc1ccc(Nc2nc(Cc3nnc(SCC(N)=O)o3)cs2)cc1,-5.72%

row,SMILES,"hERG current change (%, negative = inhibition) at 10uM"
1,CCCN1CCC(NC(=O)Cc2ccc(C)cc2)CC1,4.74%
2,CCCCc1cc(C(=O)Cc2ccccn2)c(O)cc1O,16.9%
3,COc1ccc(C(=O)/C(C#N)=N/Nc2ccc([N+](=O)[O-])cc2)cc1,7.78%
4,CCN1C(=O)C2(SC(NC(C)=O)=NN2C(C)=O)c2cc(C)ccc21 (centres unmarked),-9.19%
5,COc1cc([N+](=O)[O-])ccc1NC(=O)NCc1ccccn1,11.7%
6,COc1cccc(C2C(C(=O)OC(C)C)=C(C)N=c3s/c(=C\c4ccc(C(=O)O)cc4)c(=O)n32)c1 (centres unmarked),-9.76%
7,Cc1ccc2cc3c(NC(=O)C(C)C)nn(C)c3nc2c1,-5.72%
8,COc1cc(C2/C(=C(\O)c3ccc4c(c3)CC(C)O4)C(=O)C(=O)N2CCCn2ccnc2)cc(OC)c1OC (centres unmarked),-18.9%
9,Cc1ccc(C)c(OC(=O)c2cccnc2Cl)c1C,-8.07%
10,N#Cc1ccc(N2CCN(C(=O)c3cccs3)CC2)c(F)c1,-55.7%
11,CCCc1cc(=O)oc2cc(C)cc(OC(C)C(=O)NCc3cccnc3)c12 (centres unmarked),-47.3%
12,O=C(N[C@@H](Cc1ccccc1)C(=O)N1CCC2(CC1)NCCc1[nH]cnc12)c1cccc(F)c1,18.6%
13,COc1ccc(CNC(=O)C(C)n2nc(C)c3c(C)n(-c4ccc(C)cc4)nc3c2=O)cc1 (centres unmarked),-50.1%
14,CC(C)c1ccccc1NC(=O)CSc1n[nH]c(=O)n1C1CC1,8.91%
15,NC(N)=Nc1ccc2[nH]c3c(c2c1)C[C@@]1(O)[C@H]2Cc4ccc(O)c5c4[C@@]1(CCN2CC1CC1)[C@H]3O5.O=C(O)C(F)(F)F,6.85%
16,O=C(c1ccc2c3c(cccc13)CC2)C1CCCN(Cc2ccccn2)C1 (centres unmarked),-42.5%
17,CCOc1ccc(-n2c(N)c(-c3nc4ccccc4n3C)c3nc4ccccc4nc32)cc1,-7.84%
18,CCOc1ccc(C(=O)NCCCN2CCCC2=O)cc1,-8.47%
19,CC1(C)NC(=O)N(CCCSc2ccc(Cl)cc2)C1=O,-7.93%
20,OCC[C@H]1C[C@H](O)[C@@H](O)[C@]2(Cc3ccccc3CO2)O1,13%
